Source: the RNAGym collection of RNA variant scans (doi:10.1101/gad.245936.114)
Variants at the floor of the assay are shown more often than the library holds them.

B1: tRNA (parent)
chain: CUCUCGGUAGCCAAGUUGGUUUAAGGCGCAAGACUUUAAUUUAUCACUACGAAAUCUUGAGAUCGGGCGUUCGACUCGCCCCCGGGAGAUUUUUUCCUCGAGCAA

Variants of: B1
Test: nonsense suppression (GFP-seq) (ratio to wild type); higher = more function; SUP4oc tRNA, yeast GFP reporter sort-seq
Outline: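 To measure nonsense suppression, tRNA variants from a library carrying ~3% random mutations were integrated into the yeast genome alongside RFP and a GFP ochre reporter under galactose control. Growth took place in raffinose/galactose medium supplemented with 80 mg/L adenine, followed by sorting into GFP/RFP bins and Illumina sequencing of each bin (phred ≥30). For each variant with ≥100 reads and ≥30 cells, the bin median GFP/RFP values were weighted by its estimated cell share per bin and referenced to the unmutated parent tRNA.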

Nonsense suppression, 0.193:
CUCUCGGUUGCCAAGUUGGUUUAAGGCGCAGGACUUUAAUUUAUCACUACGAAAUCUUGAGAUCGGGCGUUCGACUCGCCCCCGGGAGAUUUUUUCCUCGAGCAA

Nonsense suppression, 0.0503:
CUCUCGGUUGCCAAGUUGGUUUAAGGCGCAAGACUUUAAUUUAUCACUACGAACUCUUGAGAUCGGGCGUUCGACUCGCCCCCGGGAGAUUUUUUCCUCGAGCAA

Nonsense suppression, 0.0422:
CUCUCGGUUGCCAAGUUGGUUUAGGGCGCAAGACUUUAAUUUAUCACUACGAAAUCUUGAGAUCGGGCGUUCGACUCGCCCCCGGGAGAUUUUUUCCUCGAGCAA

Nonsense suppression, 0.0977:
CUCUCGGUUGCCAAGUUGGUUUAAGGCGCAAGACUUUAAUUUAUCACUACGAAAUCUUGAGAUCGGGCGUUCGGCUCGCCCCCGGGAGAUUUUUUCCUCGAGCAA

Nonsense suppression, 0.0306:
CUCUCGGUUGCCAAGUUGGUUUAAGGCGCAAGACUUUAAUUUAUCACUACGAAGUCUUGAGAUCGGGCGUUCGACUCGCCCCCGGGAGAUUUUUUCCUCGAGCAA

Nonsense suppression, ≤ 0.026:
CUCUCGGUUGCCAAGUUGGUUUAAGGCGCAAGAGUUUAAUUUAUCACUACGAAAGCUUGAGAUCGGGCGUACGACUCGCCCCCGGGAGAUUUUUUCCUCGAGCAA
CUCUCGGUUGCAAGGUUGGUUUAAGGCGCACGACUUUAAUUUAUCACUACGAAAUCUUGAGAUCGGGCGUUCGACUCGCCCCCGGGAGAUUUUUUCCUCGAGCAA
CUCUCGGUUCCCAAGUUGGUUUAAGGCGCAAGACUUUAAUUUAUCACUACGAAAUCUUGAGAUCGGGCGUUCGACUCGCCCCCGGGAGAUUUUUUCCUCGAGCAA
CUCUCGGUUGCCAAGUUGGUUUAAGGCGCAAGUCUUUAAUUUAUCACUACGAAAUCUUGAGAUCGGGCGUUCGACUCACCCCCGGGAGAUUUUUUCCUCGAGCAA
CUCUCGGUUGCCAAGUUGGUUUAUGGCGCAAGACUUUAAUUUAUCACUACGAAAUGUUGAUAUCGGGCGUUCGACUCGCCCCCGGGAGAUUUUUUCCUCGAGCAA
CUCUCGGUUGCCAAGUUGGUUUAAGGCGCGAGAGUUUAAUUUAUCACUACGAAAUCUUGAGAUCGGGCGUUCGACUCGCCCCCGGGAGAUUUUUUCCUCGAGCAA
CUCUCGGUUGCCAAGUUGGUUUAAGGCGCGAGAAUUUAAUUUAUCACUACGAAAUCUUGAGAUCGGGCGUUCGACUCGCCCCCGGGAGAUUUUUUCCUCGAGCAA
CUCUCGGUUGCCAAGUUGGUUUAAGGUGCAAGACGUUAAUUUAUCACUACGAAAUCUUGAGAUCGGGCGUUCGACUAGCCCCCGGGAGAUUUUUUCCUCGAGCAA
CUCUCGGUUGCCAAGUUGGUUUACGGCGCAAGACUUUAAUUUAUCACUACGAAAUCUUUAGAUAGGGCGUUCGACUCGCCCCCGGGAGAUUUUUUCCUCGAGCAA
CUCUCGGUUGCCAAGUUGGUUUAAGGCGCAAGACUUUAAUUUAUCACUACGAAAUCUUGAGUUCGGGCGUUCGACUCGACCCCGGGAUAUUUUUUCCUCGAGCAA
CUCUCGGUUGCCAAGUUGGUUUAAGGCGCAAGACUUUAAUUUAUCACUACGAAAUCUUGAGAUCGGGCGUUCGGCUCGCCCCGGGGAGAUUUUUUCCUCGAGCAA
CUCUCGGUUGCCAAGUUGGUUUAAGGCGCAAGUCUUUAAUUUAUCACUACGAAAUCUUGAGAUCGGGCGUUCGACUCGCCCACGGGAGAUUUUUUCCUCGAGCAA
CUCUCGGUUGCCAAGUUGGUUUAAGGCGCAAGAACUUAAUUUAUCACUACGAAAUCUUGAGAUCGGGCGUUCGACUCGCCCCCGGGAGAUUUUUUCCUCGAGCAA
CUCUCGGUUGGCAAGUUUGUUUAAGGCGCAAGACUUUAAUUUAUCACUACGAAAUCUUGAGAUCGGGCGUUCGAAUCGCCCCAGGGAGAUUUUUUCCUCGAGCAA
CUCUCGGUUGCCAAGUUGGUUUAAGGCGCAAGACUUUAAUUUAUCACUACGAAAUCUUGAGAUCGGGCGUUCGACUCGCCACCGGGAGAUUUUUUCCUCGAGCAA
CUCUCGGUUGCGAAGUUGGUUUAAGGCGCAAGACUUUAAUUUAUCACUACGAAAUCUUGAGAUCGGGCGUUCGACUCGCCCCCGGGAGAUUUUUUCCUCGAGCAA
CUCUCGGUUGUCAAGUUGGUUUAAGGCGCAAGGCUUUAAUUUAUCACUACGAAAUCUUGAGAUCGGGCGUUCGACUCGCCCCCGGGAGAUUUUUUCCUCGAGCAA
CUCUCGGUUGCCAAGUUGGUUUAAGGCGCAAGACUUUAAUUUAUCACUACGAAAUCUUGCGAUCGGGCGUUCGACUCGCCCCCGGGAGAUUUUUUCCUCGAGCAA
CUCUCGGUUGCCAAGUUGGUUUAAGGCGGAAGACUUUAAUUUAUCACUACGAACUCUUGAGAUCGGGCGAUCGACUCGCCCCUGGGAGAUUUUUUCCUCGAGCAA
CUCUCGGUUCCCAAGUUGGUUUAAGGCGCAGGACUUUAAUUUAUCACUACGAAAUCUUGAGAUCGGGCGUUCGACUCGCCCCCGGGACAUUUUUUCCUCGAGCAA
CUCUCGGUUGCCAAGUUGGUUUAUGGCGCAAGACUUUAAUUUAUCACUACGAAAUCUUGAGGUCGGGCGUUCGACUCGCCCCCGGGAGAUUUUUUCCUCGAGCAA
CUCUCGGUUGCCAAGUUGCUUUAAGGCGCAAGACUUUAAUUUAUCACUACGAAAUCUUGAGAUCCGGCGUUCGCCUCGCCCCCGGGAGAUUUUUUCCUCGAGCAA
CUCUCGGUUGGCAAGUUGGUUUAAGGCGCAAGACUUUAAUUUAUCACUACGAAAUCUAGAGAUCGGGCCUUCGACUCGCCCCCGGGAGAUUUUUUCCUCGAGCAA
CUCUCGGUUGCCAAGUUGGUUUAAGGCGCCAGACUUUAAUUUAUCACUACGAAAUCUUGAGAUCGGGCGUUCGACUCGCCCCCGGGAGAUUUUUUCCUCGAGCAA
CUCUCGGUUGCCAAGUUGGUUUAAGGCGCAAGUCUUUAAUUUAUCACUACGAAAUCUUGAGAUCGGUCGAUCGACUCGCCCCCGGGAGAUUUUUUCCUCGAGCAA
CUCUCGGUUGCCAAAUUGGUUUAAGGUGCAAGACUUUAAUUUAUCACUACGAAACCUUGCGAUCGGGCGUUCGACUCGCCCCCGGGAGAUUUUUUCCUCGAGCAA
CUCUCGGUUGCGAAGUUGGUUUAAGGCGCAAGACUUUAAUUUAUCACUACGAAAUCUUGAGAUCGGGCGUUCGACUGGCCACCUUGAGAUUUUUUCCUCGAGCAA
CUCUCGGUUGCAAAGUUGCUUUAAGGCGCAAGACUUUAAUUUAUCACUACGAAAUCUUGAGAUCGGGCGUUCGACUCGCCCCCGGGAGAUUUUUUCCUCGAGCAA
CUCUCGGUUGCCAAGUUGGUUUAAGGCGCAAGACUUUAAUUUAUCACUACGAAAUCUUGAGAUCGGGCGUUCGACUCGCCGCCGGGCGAUUUUUUCCUCGAGCAA
CUCUCGGUUGCCAAGUUGGUUUAUGGCGCAAGACUUUAAUUUAUCACUACGAAAUCUUGAGAUCGGGCGUUCGACUCGCCCCCGAGAGAUUUUUUCCUCGAGCAA
CUCUCGGUUGCCAAGUUGGUUUAAGGCGCAAGACUUUAAUUUAUCACUACGAAAUCUUGAGAUCGGGCGUUCGACUCGCCCCCGGGAGCUUUUUUCCUCGAGCAA
CUCUCGGUUGCCAAGUUCGUUUAAGGCGCAAGACUUUAAUUUAUCACUACGAAAUCUUGAGAUCGGGCGUUCGACUCGCCCCCGGGAGAUUUUUUCCUCGAGCAA
CUCUCGGUUGCCAAGUUGGUUUAAGGCGCAUGACUUUAAUUUAUCACUACGAAAUCUUGAGAUCGGGCUUUCGACUCUCCCCCGGUAGAUUUUUUCCUCGAGCAA
CUCUCGGUUGCGAAGUUGGUUUAAGGCGCAAGACUUUAAUUUAUCACUACGAAAUCUUGAGAUCGGGCGUUCGACCGGCCCCCGGGAGAUUUUUUCCUCGAGCAA
CUCUCGGUUGCCAAGUUGGUUUAAGGCGCCAGACUUUAAUUUAUCACUACGAAAUCUUGAGAUCGGGCGUUCGACUCGCCCCCGGGUGAUUUUUUCCUCGAGCAA
CUCUCGGUUGCCAAGUUGGUUUAAGGCGCAAGACUUUAAUUUAUCACUACGAAAUCUUGAGCUCGGGCGUUCGACUCGCCCCCGGGGUAUUUUUUCCUCGAGCAA
CUCUCGGUUACCAAGUUGGUUUAAGGCGCAAGACUUUAAUUUAUCACUACGAAAACUUGAGAUCGGGCGUUCGACUCGCCCCCGGGAGAUUUUUUCCUCGAGCAA
CUCUCGGUUGGCAAGUGGGUUUAAGGCGCAAGACUUUAAUUUAUCACUACGAAAUCUUGAGAUCGGUCGAUCGACUCGCCCCCGGGAGAUUUUUUCCUCGAGCAA
CUCUCGGUUGCCAAGUUGGUUUAAGGCGCAAGAAUUUAAUUUAUCACUACGAAAUCUUGAGAUCGGGACUUCGACUCGCCCCCGGGAGAUUUUUUCCUCGAGCAA
CUCUCGGUUGCUAAGUUGGUUUAAGGCGCAAGACUUUAAUUUAUCACUACGAAAUCUUGAGAUCGGGCGUUCGACUCGCCCCCCGGAGAUUUUUUCCUCGAGCAA
CUCUCGGUUGCCAAGUUGGUUUAAGGCGACAGACUUUAAUUUAUCACUACGAAAUCUUGAGAUCGGGCGUUCGACUCGCCCCCGGCAGAUUUUUUCCUCGAGCAA
CUCUCGGUUGCCAAGUUGGUUUACGGCGCAAGACUUUAAUUUAUCACUACGAAAUCUGGAGCUCGGGCGUUCGACUCGCCCCCGGGAAAUUUUUUCCUCGAGCAA
CUCUCGGUUGCAAAGAUGGUUUAAGGCGCAAGACUUUAAUUUAUCACUACGAAAUCUUGAGAUCGGGCGUUCCACUCGCCCCCCGGAGAUUUUUUCCUCGAGCAA
CUCUCGGUUGCCAAGUUGGUUUAAGGCGAAAGACUUUAAUUUAUCACUACGAAAUCUUGAGAUCGGACGUUCGGCUCGCCCCCGGGAGAUUUUUUCCUCGAGCAA
CUCUCGGUUGCCAAGUUGGUUUAAGGCGCAAGACUUUAAUUUAUCACUACGAAAUCUUGAGCUCGGGCGUUCGACUCGCCCCCGGGAGAUUUUUUCCUCGAGCAA
CUCUCGGUUGCCAAGUUGCUAGAAGGCGCAAGACUUUAAUUUAUCACUACGAAAUCUUGAGAUCAGGCGUUCGACUCGCCCCCGGGAGAUUUUUUCCUCGAGCAA
CUCUCGGUUGCCAAGUUGGUUUAAGGCGCAAGACUUUAAUUUAUCACUACGAAAUCUUGUGAUCGGGCGUACGACUCGCCCCCGGGAGAUUUUUUCCUCGAGCAA
CUCUCGGUUGCAAAGUUGCUUUAAGGCGCAAGACUUUAAUUUAUCACUACGAAAUCUUGAGAUCGGGCGUUCGACUCACCCCCGGGAGAUUUUUUCCUCGAGCAA

Nonsense suppression, 0.0334:
CUCUCGGUUGCCAAGUUGGUUUAAGGCGCAAGGCUUUAAUUUAUCACUACGAAAUCUUGAGAUCGGGCGUUCGACUCGCCCCCGGGAGAUUUUUUCCUCGAGCAA
